From PubChem BioAssay AID588795 (National Center for Advancing Translational Sciences (NCATS), 2011)
The whole screen tested about 390,000 compounds, of which about 1,400 (0.36%) were called active. The inconclusive results got no clear call from the source; some entries with a clear call stand among them for comparison. The call rests on the fitted dose curve; in most records, active means well fitted inhibition curve with a large enough effect; inconclusive means small, poorly fitted or top-dose-only effect; inactive means no such curve, though single readings can be large or run the other way. A potency beside an inconclusive call is a rough fit, not a confirmed value.

Target: Flap endonuclease 1 (Homo sapiens) (UniProt P39748)
Sequence of UniProt P39748 (P39748 whole entry, looked up): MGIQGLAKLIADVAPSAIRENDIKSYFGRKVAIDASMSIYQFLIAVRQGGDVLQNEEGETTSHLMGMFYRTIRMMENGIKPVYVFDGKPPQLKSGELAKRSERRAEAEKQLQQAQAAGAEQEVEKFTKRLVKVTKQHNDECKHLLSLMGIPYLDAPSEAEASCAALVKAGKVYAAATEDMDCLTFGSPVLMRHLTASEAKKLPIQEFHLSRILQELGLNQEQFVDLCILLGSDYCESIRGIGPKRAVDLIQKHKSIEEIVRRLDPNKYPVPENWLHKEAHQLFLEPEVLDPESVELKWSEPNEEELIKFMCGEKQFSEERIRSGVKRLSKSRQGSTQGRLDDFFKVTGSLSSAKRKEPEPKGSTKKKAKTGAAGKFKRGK
Test: qHTS Assay for the Inhibitors of Human Flap endonuclease 1 (FEN1). Further: nearly all actives have a fitted effect of over 65% in size.
Settings: Recombinant FEN1 flap cleavage, fluorescence, 15 min; series mostly up to 114 µM; activity change, negative = inhibition: at the top concentration
Outline: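 Potency values derive from four-parameter Hill fits of normalized qHTS data. The reaction used 10 nM FEN1 preincubated 15 min at room temperature with compound, then 50 nM DNA substrate, read at 0 and 15 min.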
On the % scale 0 is the no-effect control and ±100 the full control effect; potency means the concentration at half of the fitted maximal effect; tags describe the fitted curve by direction and shape.

Structure (SMILES) | Potency | activity change, negative = inhibition
O=C1N=c2ccc(Br)cc2=C1c1sc(=S)n(NS(=O)(=O)c2ccccc2)c1O | active: 79.4 µM | 
CCN(CC)C(=O)[C@H]1C[C@H](CC(=O)NCCC2=CCCCC2)C(=O)N2CCc3c([nH]c4ccc(Cl)cc34)[C@]12C | inconclusive: 79.4 µM [inhibitor, partial curve, poor fit] | 
O=C(Nc1nncs1)c1cc(-c2ccco2)nc2ccccc12 |  | inactive: -16.7%
CC(C)Sc1nnc([C@H](Cc2c[nH]c3ccccc23)NC(=O)OC(C)(C)C)o1 | inconclusive: 89.1 µM [inhibitor, partial curve, poor fit] | 
Cn1c(N)c(C(=O)CSc2nnc(-c3c[nH]c4ccccc34)n2C2CC2)c(=O)[nH]c1=O | active: 20 µM | 
C=CCNC(=O)c1ccc(Cn2c(=S)[nH]c3cc4c(cc3c2=O)OCO4)cc1 | inconclusive: 56.2 µM [inhibitor, partial curve, poor fit] | 
S=C1NC[C@H](c2ccccc2)N1CCCCC1CCCCC1 | inconclusive: 44.7 µM [inhibitor, partial curve, poor fit] | 
Cc1cccc(C(=O)NC2CC3CCCC(C2)N3C(=O)NC2CCCCC2)c1 (stereo not drawn) | inconclusive: 39.8 µM [inhibitor, single point] | 
O=C(CSc1nc(-c2ccc(F)cc2)nc2ccc(F)cc12)Nc1cccc(C(=O)O)c1 | inconclusive: 50.1 µM [inhibitor, partial curve] | 
Cc1ccc(C)n1-c1nc(=S)[nH][nH]1 |  | inactive: -14.1%
COc1ccc(Br)cc1/C=C/C(=O)c1ccc(NC(C)=O)cc1 | inconclusive: 89.1 µM [inhibitor, partial curve, poor fit] | 
Cc1cc(CSc2ccccc2)ccc1NC(=O)COc1ccccc1 |  | inactive: -12.1%
CCOC(=O)c1c(C)[nH]c(C(=O)OCc2ccc(C)cc2)c1C | inconclusive: 89.1 µM [inhibitor, partial curve, poor fit] | 
O=C1CCC[C@@H]2C[C@@]3(C[C@@H]4CCN1[C@H]24)Nc1ccccc1NC3=NC1CCCCC1 |  | inactive: -4.31%
O=C(NCCc1ccccc1)c1cnc2sc(N3CCCCC3)nn2c1=O |  | inactive: 19%
COc1cccc(NC(=O)CSc2nc3c(sc4ccccc43)c(=O)n2CCCN2CCCC2)c1 | inconclusive: 28.2 µM [inhibitor, partial curve] | 
Cc1ccc(-c2noc(-c3nnn(-c4ccc(Br)cc4F)c3C)n2)cc1 |  | inactive: 8.48%
CCOc1ccc2nc(N3C(=O)/C(=C/c4ccccc4)NC3=S)sc2c1 | inconclusive: 79.4 µM [inhibitor, single point] | 
